# Reference: the supplement of paper PMC10126150
# Sequences with one replicate were seen in a single cluster, so their values are uncertain.
# System: ATP
# Assay: switch fluorescence ratio, 500 uM ATP over buffer (Cy3 cluster intensity, sum of 5 cycles each) (fold (ratio)); higher = stronger signal-on switching upon ATP binding; sequences stand for … in TCGTCGGCAGCGTCAGATGTGTATAAGAGACAGTTTTTTTTTTTTTTTTTTTTTTTTT…TC
# Settings: aptamer strand: ATP DNA aptamer (quencher-CACCTGGGGGAGTATTGCGGAGGAAGG + anchor), 100 nM annealed; ATP concentration: 500 uM; one replicate
# Method in brief: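 Values give the fluorescence ratio for each switch-domain sequence, averaged from per-cluster ratios of summed target-cycle to summed buffer-cycle Cy3 intensity. The Cy3-labelled switching-strand clusters sat on a modified Illumina MiSeq flow-cell, were annealed to 100 nM quencher-labelled ATP aptamer, and were imaged in selection buffer, then after 15 min with 500 uM ATP at 22 °C. Five cycles ran with NaOH stripping and re-annealing between them, and clusters outside 100-1000 RFU were excluded.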
# 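Further: ATP exposure 15 min at 22 °C before imaging.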
row,Sequence,switch fluorescence ratio
1,CCTTGAGTTT,0.995
2,AGTCGGCGCG,0.997
3,TAACAAGAGG,1
4,GGCCCGTACG,1.01
5,AGTTCTCCTA,0.97
6,ATGAATAAT,1.02
7,CGGTTGGCAT,0.99
8,TAGCCCTAGG,1.01
9,GACTTGTGGA,0.969
10,TATCACGTTC,1.04
11,ACCTTCGGC,1.1
12,CTAATTTTTA,0.98
13,GTAGTGTTTT,0.972
14,TCATTAGGGA,0.99
15,TTCTTGAA,1.02
16,TCTCTGTAG,1.01
17,TCAAGCACAG,1.13
18,TGCGGTACTG,1.08
19,TCCTTTACAT,1.02
20,CCGCTATTTA,2.48
21,TTCTTTCGAT,1.03
22,TTATGGCAGT,0.993
23,TTCCGGGGTG,1.14

row,Sequence,switch fluorescence ratio
1,GCGCTATGG,1.48
2,GGGGAAACCC,1.05
3,TAGGAGTAAA,1.04
4,TACTTGTGAT,0.985
5,CATGTAAAAA,1.03
6,CACATAGGA,1.01
7,GGGGCTGCCG,1.03
8,TCTGCATAAG,1.15
9,AAAGTCGTGT,0.989
10,GTAGGTGC,1.19
11,TAACTCCTTT,1.02
12,CGGGCGTGCG,0.959
13,AATGCCATTC,1.01
14,GAATAGCCGC,1.05
15,TACACTATTT,1.05
16,GAGAATACGC,0.991
17,AGGTAGATTG,0.972
18,AGCTAGAAGA,1.04
19,ATGATCTATG,0.973
20,TAATCGTTGC,0.983
21,TGATTGTTAC,1
22,TAAGTTTCAT,1
23,TGACAATGCA,1.03

row,Sequence,switch fluorescence ratio
1,CTCAGAAAGG,1.01
2,CTCATAGTGT,0.997
3,ATCTGGCGG,1.04
4,TGGTCAAGGA,0.989
5,CATCCTCCCG,1.64
6,AATAGGTTCC,1.05
7,GCTGGCATCA,0.993
8,AGGCATGACA,0.98
9,GCTGACCTGT,0.969
10,CCAGTATGGT,0.992
11,TTACGTCAGC,1.05
12,AAATGGTTAG,0.963
13,AATTATCAAC,1.01
14,GCCGGCCTCA,0.98
15,AAACCCTGTG,1.05
16,ACCAAGTCG,1.02
17,ACAAAGGGAT,1.01
18,ATAACGGGCT,0.998
19,GGTTAATATT,1.03
20,GGTAGACTGC,1.05
21,TTATGCCTAA,0.959
22,TCGGGGGTAC,1.06
23,TTCAACAGCA,1.06

row,Sequence,switch fluorescence ratio
1,ATGCCTTGGG,0.961
2,ATTATCAATG,0.967
3,GCGTACTATC,1.02
4,TTGTGCAAG,1.02
5,TAAGGTTTAC,0.99
6,TAATGGCTCC,1.06
7,TAAGTTCCGT,1.01
8,GCCGAAAAT,0.984
9,CTCATCTGC,1.12
10,ATTTGGACCT,1.37
11,GGATGGGACG,0.988
12,TTCGTGACAG,0.992
13,GCTCCAACGG,1.12
14,CTGTTTTGCT,0.956
15,CCTGTTCCCC,1.08
16,GTTATTAGGC,1.03
17,GAACCTCGGG,0.96
18,AAACTAGTCA,1.01
19,GTTTCCATAG,0.997
20,ACGTTTGAGA,1.03
21,TATCGCTTTT,1.02
22,AACCAGTGAG,1
23,TTTGGAACAG,0.962

row,Sequence,switch fluorescence ratio
1,AGAGATGGAG,1.04
2,GAATCTGTAG,1.01
3,GTCATTTGGG,0.969
4,CTATAATCCT,1.1
5,AAGCCCGCTG,1.08
6,ACTTATGGT,1.05
7,TTGCTCTTCG,1.02
8,TGATGTGCAG,1.03
9,ACTGCTGCCC,1.04
10,TAAAAGAAG,0.99
11,CACTGCTGCG,1.04
12,TATGCAATGG,2.51
13,ATCAAAGGCG,1.03
14,GCACAGGTGG,1.33
15,TGTAAG,0.982
16,TATGTCTCAG,0.992
17,CTATAACCAT,0.995
18,AGGTCAATAG,1.33
19,TGGTGTGTAA,0.929
20,CCAACCTGC,1.33
21,AATAGTGGGG,0.958
22,TTTGACACCA,1.1
23,GGTTCGTAGA,1

row,Sequence,switch fluorescence ratio
1,CAGTTACCGT,0.979
2,CCGGTTTCGG,1.05
3,CATACGAGTA,1.02
4,GCCCACAAC,1.57
5,CCAGATTGGT,1.02
6,ATCTCGTACA,1.01
7,CTAACTTTTA,1.04
8,CCTGTACGTT,1.04
9,AATGGCCGG,1.01
10,GAATGTGCCG,1.01
11,GAGACAGTAC,2.83
12,ACAGCAAAGG,1.12
13,CTTGTACTGA,0.995
14,GCTTAATTAC,1.09
15,TTATCTGGCC,1.01
16,AATCTTCCGG,1.46
17,AGTAACTCTA,0.985
18,TTCCCCACCG,1.08
19,CACAGGCCGA,1.05
20,ATTGCTGATT,0.949
21,TCGTTCCTGA,0.989
22,TATTTGCT,0.955
23,GATCTCAACG,0.963

row,Sequence,switch fluorescence ratio
1,GCGCGCCGAG,0.975
2,TGCTCGCGGG,1.08
3,ATTTCTGGAG,1.08
4,GACGATACTG,1.1
5,TTAGCTGAAA,1
6,TGGTCTGCGT,1.01
7,ATTGGTGGGC,0.968
8,TATGTTTTAA,0.985
9,AGCTTCTGC,0.992
10,GGGAAGCGGG,1.01
11,GAATATCGTC,0.956
12,ATATATCTTG,1.01
13,TTGAATGGCG,1.08
14,GGGTCGTGTA,1.06
15,GGGTTATGG,0.99
16,CTAGAGAACC,0.982
17,GGGTCCGGTA,0.988
18,GCATGGTCAT,0.994
19,ATCTGGTGGT,0.939
20,TAGAAAGTGG,0.929
